Reference: the supplement of paper PMC7726561
Over roughly 1,400 sequences, “thermal melting temperature (Tm) of peptide-HLA complex” has its median near 60; the lowest 2% begin near 45. The list shows a part of the results.

Target: HLA-B*07:02
Assay: thermal melting temperature (Tm) of peptide-HLA complex; higher = more thermostable pHLA complex
Details: C1R-B*07:02
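Further: cell lysates heated 10 min at 37–73 °C, remaining pHLA pulled down with pan-class I antibody, peptides quantified by DIA-MS versus 37 °C, Tm where half the complex is lost.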

| Sequence | thermal melting temperature [°C] |
| --- | --- |
| PQQPHPPL | 47.4 |
| SPTPRIKAEL | 46.2 |
| APRKGSFSAL | 61.1 |
| VPRERVDHL | 54.7 |
| SPHTPSTHF | 46 |
| RPQPVLPLL | 59.8 |
| SPASFLRSL | 40.6 |
| TPQMPTQAM | 59.7 |
| RPKDPNNLL | 59.1 |
| SPKLGGIGF | 55.5 |
| IPYPRPIHL | 61.1 |
| LPKQPPLAL | 63.5 |
| KPINVRVTTM | 56 |
| APLPGRAIL | 63.3 |
| SPAGNSPAPL | 56.7 |
| RPSQNNTIGL | 54 |
| TPQQGAQTSL | 40.5 |
| APINKAGSFL | 61.8 |
| IPFWRNTAV | 62.3 |

| Sequence | thermal melting temperature [°C] |
| --- | --- |
| APSSRWGGTSL | 52.9 |
| HPRVPSLTTV | 58.8 |
| APTPARPVL | 59.7 |
| APEEHPVL | 56.1 |
| DPMKARVVL | 49.3 |
| IPRYIVSQL | 63.3 |
| APRDAYWIA | 58.8 |
| RPAPLPAAVV | 55.9 |
| SPRDITTIKL | 60 |
| SPAKPVLIF | 60.1 |
| RPAAPGQTPL | 59 |
| WPASQRDVL | 60.9 |
| NPREWTPEI | 57.8 |
| APARASVIL | 58.5 |
| QPKLPITVL | 60.8 |
| APTQEKIFAVL | 61.2 |
| SPHSAAYVL | 55.4 |
| APAPKPEAA | 62.6 |
| LPRQPPMSL | 66.1 |

| Sequence | thermal melting temperature [°C] |
| --- | --- |
| LVRDVVSSL | 62.3 |
| FPRSQISVL | 62.1 |
| YPRVPVGGEL | 57.4 |
| APRPTIINA | 56.7 |
| RPQAPATVGL | 58.2 |
| SPTSLKITL | 58 |
| KPFLGIGL | 62.1 |
| APRAVFPSI | 62 |
| SPQAPTLQV | 63.1 |
| KPRNVQILNM | 54.8 |
| RPLGTRLGF | 53.6 |
| RPSPWRPLVL | 57.1 |
| SPSWRLTGF | 60.9 |
| IPASNRLLL | 61.8 |
| GPRPVLGGSFL | 62.9 |
| EPRHGGLTL | 55.8 |
| QLRLPTDTL | 60.5 |
| APSGGKVTVL | 59.8 |
